Test results from PubChem BioAssay AID1508623 (National Center for Advancing Translational Sciences (NCATS), 2021).
Hit rate of the full screen: of about 48,000 compounds, about 450 (0.94%) were called active. Not shown: some 19% with an inconclusive outcome. The call rests on the fitted dose curve; in most records, active means well fitted inhibition curve with a large enough effect; inconclusive means small, poorly fitted or top-dose-only effect; inactive means no such curve, though single readings can be large or run the other way. The list shows a part of the results.

Experiment: Primary qHTS for Identification of Small Molecule Inhibitors of Huntingtin Promoter Activity; further: nearly all actives have a fitted effect of over 50% in size
Settings: HEK293 HTT promoter firefly luciferase reporter (activity 0% = vehicle and -100% = no light), 24 h; series mostly up to 57.5 µM; activity change, negative = inhibition: at the top concentration
How it was run: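 HEK293 Fluc reporter, 2,500 cells/well, 24 h pre-culture; cpds up to 57.5 uM final, 24 h 37 degrees C; Dual-Glo, 10 min RT; normalized vehicle = 0%, zero RLU = -100%.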

Activity change, negative = inhibition, inactive:
COc1ccc2[nH]cc(CCNC(=O)Nc3ccc(F)cc3)c2c1 -15.2%
CCCC(=O)Nc1nnc(SCc2cc(=O)c3cc(C)ccc3[nH]2)s1 -22.4%
O=C(c1ccc(CSc2nc3ccncc3n2Cc2ccccc2F)cc1)N1CCCCCC1 -29.7%
O=C(Cn1ncc2c3ccccc3n(Cc3ccc(Cl)cc3)c2c1=O)NCCCc1ccccc1 0.388%
CC(C)c1ccc(Nc2cc(C(=O)NCCc3ccccc3)c3ccccc3n2)cc1 -7.47%
CCc1ccccc1N1CC(c2nc3ccccc3n2CC(C)C)CC1=O (stereo unspecified) -17.9%
Cc1ccc(C)c(S(=O)(=O)c2nnn3c2nc(N2CCCC2)c2sccc23)c1 -19.6%
CCCCN(CC)CCCn1cnc2c([nH]c3ccc(Cl)cc32)c1=O 1.35%
CCC(=O)Nc1ccccc1-c1nc2ccccc2n(C(CC)C(=O)Nc2cccc(C(C)=O)c2)c1=O (stereo unspecified) -3.82%
CC(C)(C)C1CCc2nc(NC(=O)COc3ccc(F)cc3)sc2C1 (stereo unspecified) -26.3%
CC(=O)Nc1ccc(-n2cc3c(c2-c2ccc(C)cc2)c(=O)n(C)c(=O)n3C)cc1 -0.593%
Cc1oc(-c2ccc(C(=O)Nc3ccc(F)cc3F)cc2)nc1COc1ccccc1 -15.9%
Cn1c(SCC(=O)Nc2ccc(F)cc2)nc2c([nH]c3ccccc32)c1=O -15.4%
CN(C)C(=O)c1ccc2c(c1)N(CC(=O)NCc1ccc(F)cc1)C(=O)C1CCCCN21 (stereo unspecified) -3.83%
COc1cccc(-c2cc(C(=O)NCc3ccccc3)[nH]n2)c1 43.6%
Cc1ccc(NC(=O)C(Cc2ccccc2)NS(=O)(=O)c2ccc3c(c2)c(=O)n(C)c(=O)n3C)cc1 (stereo unspecified) -18%
CCN(C(=O)c1cc(S(=O)(=O)N2CCOCC2)cn1C)c1ccc(OC)cc1 11.7%
Cc1ccc(CN2C(=O)c3ccccc3S(=O)(=O)c3ccc(C(=O)OCC4CCCO4)cc32)cc1 (stereo unspecified) -0.412%
CCOc1nc(NC(=O)NS(=O)(=O)Oc2ccc(Cl)cc2)nc(-c2ccccc2)n1 41.6%
Cc1cccn2c(=O)c3cc(C(=O)NCCc4ccc(S(N)(=O)=O)cc4)n(C)c3nc12 -28.6%
COc1ccc(OC)c(C2C(C(N)=O)=C(C)Nc3nc(-c4cccc(Cl)c4)nn32)c1 (stereo unspecified) -10.6%
COc1cc(OC)cc(-c2nnc(SCC(=O)N3CCC(C)CC3)o2)c1 -23.7%
COc1ccc(CCNC(=O)CCn2c(=O)c3ccccc3n(CC(=O)Nc3cccc(C)c3)c2=O)cc1OC -7.61%
CC(=O)c1ccc(NC(=O)Cn2c(-n3nc(C)cc3C)nc(C)cc2=O)cc1 -20.7%
Cc1ccc2c(c1)cc1c(=O)n(CC(=O)NCc3ccco3)nc(C)n12 8.76%
O=C(c1ccc(CSc2nc3ccncc3n2Cc2ccccc2F)cc1)N1CCCCC1 -2.73%
CCOc1ccccc1Nc1sc(C(=O)c2ccc(Cl)cc2)c(N)c1C#N -21.7%
COc1ccc2c(c1)C(=O)N(CCc1ccc(S(=O)(=O)NC(=O)NC3CCCCC3)cc1)C(=O)C2(C)C 5.76%
O=C(NCc1ccc(F)cc1)c1cccc(N2CCCS2(=O)=O)c1 -28.7%
O=C(NCCc1ccccc1)c1cc(-c2ccccc2)nc2n[nH]c(-c3ccccc3)c12 16.6%
Cc1ccccc1NC(=O)Cn1c(=O)n(Cc2ccco2)c(=O)c2cccnc21 -0.81%
CC(C)c1ccc(NC(=O)CNC(=O)Cn2ccc3ccccc3c2=O)cc1 -11%
CCc1ccc2c(c1)c(=O)c(C(=O)c1ccc(C)cc1)cn2CC(=O)Nc1ccc2c(c1)OCCO2 -16.9%
Cc1ccc(Cl)cc1NC(=O)C1CCCN(S(=O)(=O)c2c(C)noc2/C=C/N(C)C)C1 (stereo unspecified) -36.3%
COC(=O)c1c(NC(=O)CCCOc2ccccc2)sc2c1CCC(C)C2 (stereo unspecified) 1.51%
CCC(=O)N1CCc2cc(S(=O)(=O)CCC(=O)N(C)c3ccc(OC)cc3)ccc21 8.3%
Cc1ccc2nc(/C(C#N)=C/c3ccc(-c4ccc(F)cc4F)o3)[nH]c2c1 9.79%
CSc1cccc(NC(=O)c2ccc3c(c2)c(C)c(C)n3Cc2ccc(F)cc2)c1 -24.1%
COc1ccc(CCCc2nnc(SCC(=O)Nc3ccc(C)c(C)c3)o2)cc1 -20.9%
CCc1ccc(S(=O)(=O)c2cn(C)c3cc(N4CCN(CC)CC4)c(F)cc3c2=O)cc1 -10.6%
Cc1cc(C)c2c(CC(=O)Nc3nnc(CC(C)C)s3)coc2c1 2.31%
CN(C)CCN(Cc1ccc(Cl)cc1)c1ccccn1 4.51%
Cc1ccc(CN2CCC(CNC(=O)Nc3c(C)cccc3C)C2)cc1 (stereo unspecified) -16.2%
COc1ccccc1-c1c(C)nn2c(C(F)(F)F)cc(-c3ccccc3)nc12 -13.8%
CCC(=O)Nc1cccc(-c2cn3c(C)csc3n2)c1 20.4%
O=C(CCC1N=C2c3ccccc3N=C(SCc3cccc(Cl)c3)N2C1=O)NCc1cccs1 (stereo unspecified) -3.13%
COc1cccc(C(=O)N(Cc2cccc(Cl)c2)Cc2ccco2)c1 -29.7%
CC(C)(C)c1ccc(OCC(=O)Nc2c(C(=O)c3ccc(F)cc3)oc3ccccc23)cc1 8.1%
NS(=O)(=O)Cc1noc2ccccc12 13.2%
CCC(C)n1c(=N)c(S(=O)(=O)c2ccccc2)cc2c(=O)n3ccccc3nc21 (stereo unspecified) -11.1%
CCOc1ccc(S(=O)(=O)N(CC(=O)NCCSCc2ccccc2)c2ccccc2)cc1 -14.9%
CCOc1ccccc1NC(=O)N1CCN(Cc2cc(=O)n3nc(-c4ccc(C)cc4)sc3n2)CC1 -12.8%
COc1cc(Cl)c(C)cc1NC(=O)NC1COc2ccccc2C1 (stereo unspecified) -13.8%
CCCNC(=O)Cn1c(=O)cc(C)c2c(C)nn(-c3cccc(F)c3)c21 -8.06%
CCc1ccc(-c2ccc3nnc(SCC(=O)Nc4cccc(C(C)=O)c4)n3n2)cc1 -20.4%
Cc1onc(-c2ccccc2)c1C(=O)Cl 2.07%
COc1ccc(NC(=O)c2oc3ccccc3c2NC(=O)c2cc(OC)c(OC)c(OC)c2)cc1 -10.3%
COc1ccc(CCNC(=O)CN2C(=O)COc3ccccc32)cc1OC -17.8%
COc1cccc(CNC(=O)c2ccc(CS(=O)c3ccccc3)o2)c1 (stereo unspecified) -10.3%
Cc1cccc(Oc2nc3c(c(=O)n(C)c(=O)n3C)n2C)c1C -5.35% [at 11.5 µM]
CCc1ccccc1NC(=O)C(CCSC)NS(=O)(=O)c1ccc2c(c1)oc(=O)n2C (stereo unspecified) -25.5%
CCOC(=O)N1CCN(C(=O)c2cnn(-c3cccc(F)c3)c2-n2cccc2)CC1 -16%
Cc1ccccc1-c1nn2c(=O)cc(CN3CCN(C(=O)c4ccccc4Br)CC3)nc2s1 -0.895%
N#Cc1c(-c2ccccc2)cc(-c2ccccc2)nc1SCC(=O)Nc1ccc(Cl)cc1 -7.12%
CC1CCN(S(=O)(=O)c2ccc3nc(N4CCN(c5ccccc5)CC4)ccc3c2)CC1 6.98%
Oc1c(C(c2ccc(Cl)cc2)N2CCOCC2)sc2nc(-c3ccco3)nn12 (stereo unspecified) 20.5%
Fc1cccc(CSc2nc(NCCc3ccccc3)c3ccccc3n2)c1 -8.98%
COc1ccccc1OCC(=O)Nc1cc(-c2ccc(C)cc2)no1 31.5%
Cn1c(=O)c(-c2c(Cl)cccc2Cl)cc2cnc(Nc3cccc(C(=O)O)c3)nc21 20.4%
Cc1ccc(CSc2ncccc2C(=O)O)cc1 35.1%
COc1cccc(-c2nc(CS(=O)(=O)CC(=O)NCCCc3ccccc3)c(C)o2)c1 -26.1%
Cc1ccc(S(=O)(=O)N2CCCc3cc(NC(=O)c4ccc(C(C)(C)C)cc4)ccc32)cc1 -23.8%
Cc1nc(-c2ccc(F)cc2)sc1CCNC(=O)C(=O)Nc1ccc2c(c1)OCO2 -25.5%
CCCn1c2ccccc2c2cnn(CC(=O)NCCc3cc(OC)ccc3OC)c(=O)c21 -12.4%
CCOC(=O)c1cccc(NC(=O)NCc2ccc3c(c2)CCN3C(=O)CC)c1 -22.6%
COc1ccc(N2CCN(C(=O)c3nn(C)c4c3CSc3ccccc3-4)CC2)cc1 -14.7%
CCc1ccc(C(=O)c2cn(CC(=O)Nc3ccc(OC)c(Cl)c3)c3nc(C)ccc3c2=O)cc1 3.09%
CC1=C(C(=O)Nc2cccc(C(F)(F)F)c2)C(c2ccccn2)n2ncnc2N1 (stereo unspecified) 0.169%
CCCN(C(=O)NCc1noc2ccc(C)cc12)c1ccc(Cl)c(Cl)c1 -5.72%
CCC(=O)Nc1ccccc1-c1nc2ccccc2n(CC(=O)c2ccc(Br)cc2)c1=O -10.1%
Cc1ccc(Cl)cc1NC(=O)Cn1cc(S(=O)(=O)Cc2ccccc2Cl)c2ccccc21 -15.5%
Cc1cc(C)cc(OCC(=O)NCC2(N3CCOCC3)CCCCC2)c1 -16.4%
COc1ccc([C@@H]2Sc3ccccc3N(CCN(C)C)C(=O)[C@@H]2OC(C)=O)cc1 -5.29%
O=C(Cn1c(SCCOc2ccccc2Cl)nc2ccccc21)N1CCCCC1 -12.2%
CCCc1cc(=O)[nH]c(SCc2nc(-c3ccc(OC)cc3)no2)n1 5.29%
Cc1cn([C@H]2C[C@H](N=[N+]=[N-])[C@@H](CO)O2)c(=O)[nH]c1=O -6.98%
COc1ccc(CC(=O)NCCc2csc(-c3cccc(F)c3)n2)cc1OC -32.3%
N#Cc1ccccc1Cn1c(=O)n(-c2ccc(F)c(Cl)c2)c(=O)c2sccc21 -14.9%
Cc1ccc(C)c(NC(=O)Cn2c(=O)n(Cc3ccco3)c(=O)c3ccc(C(=O)NC4CCCC4)cc32)c1 -10%
CCOC(=O)c1ccccc1NC(=O)c1sc2ncn(CC)c(=O)c2c1C -4.09%
O=C(CSc1nc(O)c(C/C=C/c2ccccc2)c(=O)[nH]1)Nc1cccc(F)c1 -9.4%
CC(C)(C)c1ccc(S(=O)(=O)N2CCN(C(=O)c3cc(-c4ccc(Br)cc4)n[nH]3)CC2)cc1 -1.62%
CCOc1ccc(NC(=O)c2noc3c2CSc2ccccc2-3)cc1 1.34%
CCOCCc1nn2c(=O)cc(COC(=O)c3ccco3)nc2s1 -6.55%
COc1cc(-c2noc(-c3ccc(N4CCCCC4)c([N+](=O)[O-])c3)n2)cc(OC)c1OC -11.2%
COc1cccc(CNC(=O)c2nnc(Cc3ccc(Cl)cc3)o2)c1 -3.76%
